Laboratory results reported in PMC6919601, “Identification of Plasmodium dipeptidyl aminopeptidase allosteric inhibitors by high throughput screening” (PLoS ONE, 2019).
Among all 110,000 compounds or so, about 230 (0.21%) showed an effect of 50% or more. The list shows a part of the results.

Biological target: DPAP1 (Plasmodium falciparum, UniProt Q8IIJ9)
Assay: primary screen, percent inhibition; read by cleavage of a fluorogenic dipeptide substrate; higher = more effect of the substance
Parameters: species or system P. falciparum D10 trophozoite lysates; single well
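Note: 30 min substrate incubation versus DMSO and 10 µM JCP410 controls.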

Sequence of DPAP1 (Q8IIJ9 whole entry, looked up): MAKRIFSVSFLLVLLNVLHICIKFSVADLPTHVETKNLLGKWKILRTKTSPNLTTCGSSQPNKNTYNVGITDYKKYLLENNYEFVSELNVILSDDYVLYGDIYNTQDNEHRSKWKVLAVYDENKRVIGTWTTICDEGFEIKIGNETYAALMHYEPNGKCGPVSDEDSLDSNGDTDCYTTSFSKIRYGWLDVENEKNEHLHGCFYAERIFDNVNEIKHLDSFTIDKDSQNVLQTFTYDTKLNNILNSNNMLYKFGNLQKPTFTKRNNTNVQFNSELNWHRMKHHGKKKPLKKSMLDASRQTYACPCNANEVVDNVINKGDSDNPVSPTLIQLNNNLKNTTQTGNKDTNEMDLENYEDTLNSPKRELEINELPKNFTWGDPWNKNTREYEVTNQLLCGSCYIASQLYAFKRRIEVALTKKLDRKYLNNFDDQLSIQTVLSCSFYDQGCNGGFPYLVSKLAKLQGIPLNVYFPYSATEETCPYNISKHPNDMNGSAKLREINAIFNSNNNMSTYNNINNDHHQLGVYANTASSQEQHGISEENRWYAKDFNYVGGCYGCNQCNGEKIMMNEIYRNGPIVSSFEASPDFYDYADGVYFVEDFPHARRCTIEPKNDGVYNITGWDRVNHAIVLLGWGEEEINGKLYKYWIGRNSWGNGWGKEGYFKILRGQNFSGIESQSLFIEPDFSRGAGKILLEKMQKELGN

Structure (SMILES) | % Inhibition @ 10 uM [%]
C1Cc2c(c(CN3CCOCC3)c3c(c2CN2CCOCC2)CCC3)C1 | -9.77
O=C(c1cccs1)c1cn(CC(=O)N2CCc3ccccc3C2)c2ccccc12 | -5.51
CCC(=O)Nc1nonc1-c1nc2ccccc2n1C(C)C | 5.39
Cc1ccccc1OCC(=O)Nc1ccc(Cl)c(C(F)(F)F)c1 | -6.01
Cn1c(=O)[nH]c(=O)c2c1nc(N1CCCCCC1)n2CCN1CCCCCC1 | 0.758
N#CCCn1cc(C2CC(c3ccccc3)=NNC2=O)c2ccccc21 (centres unmarked) | 3.38
O=C(O)C1C(C(=O)Nc2cccc([N+](=O)[O-])c2)C2C=CC1C21CC1 (centres unmarked) | 3.01
Cc1ccc(OCC(=O)Nc2ccc(NC(=O)c3ccccc3)c(C)c2)cc1 | 1.08
O=C(CSc1ccc(-c2cccs2)nn1)c1ccc(F)cc1 | -3.44
CCCC[C@H](NC(=O)[C@H](CS(=O)(=O)Cc1ccccc1)NC(=O)N1CCOCC1)C(=O)C1Cc2ccccc2C1=O (some centres unmarked) | 19.1
COc1ccc2ccccc2c1C1CC(=O)N2CN(C)CSC2=C1C#N (centres unmarked) | 36.5
CC(C)(C)C(=O)N1CCCC1C(=O)O (centres unmarked) | -1.36
CC(NC(=O)CCc1nnc2n(Cc3ccccc3)c(=O)c3ccccc3n12)c1ccccc1 (centres unmarked) | 2.6
CN(C)CCCN1C(=O)CSC1c1cccc(Cl)c1 (centres unmarked) | -3.44
CN(C)C(=O)C1c2ccccc2C(=O)N(C2CCCC2)C1c1cccs1 (centres unmarked) | 4.41
O=C1OC(c2cccc3ccccc23)=N/C1=C\c1coc2ccc(Cl)cc2c1=O | 11.4
CC1=C([N+](=O)[O-])CS(=O)(=O)/C1=C/C=C/c1ccccc1 | 6.83
O=C(COc1ccc2ccc(=O)oc2c1)Nc1ccccn1 | 0.0719
COc1cc(C(=O)Nc2ccccc2)cc(OC)c1OC | 3.57
COC(=O)Nc1c(-c2ccccc2)nc2ccccn12 | 1.54
C=CCn1cc(/C=C2/NC(=O)N(CC)C2=O)c2ccccc21 | -1.43
Nc1ccc2oc(=O)c(-c3ccccc3)cc2c1 | 4.12

Structure (SMILES) | % Inhibition @ 10 uM [%]
Cc1nc2c(c(C)nn2-c2ccccc2)c(C)c1CCC(=O)N1CCCC1 | 5.65
Fc1ccc(CN2CCN(Cc3ccc4c(c3)OCO4)CC2)c(F)c1 | -5.61
CCOC(=O)c1sc2nc(-c3ccccc3)cc(-c3ccccc3)c2c1N | -1.68
COCCN1C(=O)c2ccccc2C(C(=O)Nc2cccnc2Cl)C1c1cccs1 (centres unmarked) | 5.37
O=C(c1cc2c(s1)-c1ccccc1OC2)N1CC=C(c2ccccc2)CC1 | 0.291
COC(=O)c1ccc(CSc2nnc(C)n2N)o1 | 2.17
Cc1ccc2nc(NC(C)c3ccccc3)c3nnnn3c2c1 (centres unmarked) | -0.999
O=C1c2ccccc2C(=O)c2c1n[n+]([O-])n2CCCN1CCN(c2ccccn2)CC1 | -0.92
COc1ccc(C)cc1NC(=O)c1cccnc1Cl | 1.64
CCOC(=O)c1cc2c(nc1N)COC(C)(C)C2 | -6.83
Oc1nc(-c2ccccc2)ncc1Oc1ccccc1 | -1.61
COCC(C)NCc1ccccc1C(F)(F)F (centres unmarked) | -1.85
Nc1ccc(Sc2ccc(Cc3ccc(Sc4ccc(N)cc4)cc3)cc2)cc1 | -0.415
Cc1ccc(S(=O)(=O)N2CCC(C(=O)Nc3c(F)cccc3F)CC2)cc1 | 1.93
CCc1c(C)n[n+]2cnn(Cc3ccc(Cl)cc3)c2c1O | 1.13
CCOc1ccc(C(C)(C)C)cc1S(=O)(=O)Nc1ccc(Cl)cn1 | -3.53
COc1cc(/C=C\C(=O)Nc2c3c(nn2-c2cccc(C)c2C)CS(=O)(=O)C3)cc(OC)c1OC | 8.58
CC1CCc2c(sc(NC(=O)c3cccs3)c2C#N)C1 (centres unmarked) | 1.37
N#CC1=C(N)Oc2ncnc(O)c2C1c1ccc(-c2ccccc2)cc1 (centres unmarked) | 2.01
Cc1ccc(C)n1-c1cc(C(=O)O)ccc1O | 1.26
COc1cccc(CN2CCN(Cc3ccc(F)cc3)CC2)c1OC | -7.46
CCC(=O)Nc1ccc(C(=O)Nc2cc(OC)c(OC)cc2C(=O)O)cc1 | 2.29

Structure (SMILES) | % Inhibition @ 10 uM [%]
N#CC1=C(N)Oc2[nH]nc(-c3cccs3)c2C1c1ccccc1Cl (centres unmarked) | -6.37
COCCN1C(=O)c2ccccc2C(C(=O)N2CCCC2)C1c1cccs1 (centres unmarked) | 0.526
CC1=C(C(=O)Nc2ccccc2C)C(c2cccs2)C(C#N)=C(SCC(N)=O)N1 (centres unmarked) | 3.46
Cc1ccc(CN2CCCN(C)CC2)s1 | -7.34
COc1cccc(C2NCCc3c2[nH]c2ccccc32)c1O (centres unmarked) | 3.16
O=C1c2oc3ccc(Cl)cc3c(=O)c2C(c2ccc(O)cc2)N1Cc1ccc2c(c1)OCO2 (centres unmarked) | -1.33
CCN(CC)CCNC(=O)CSCc1ccc(C)cc1 | 0.514
O=C(CC(c1ccccc1)c1ccccc1)NCc1cccs1 | -0.132
c1n[nH]c2c1CNCC2 | 0.708
N#Cc1cccc(CSc2nc3ncccc3o2)c1 | 1.81
Cc1ccc(-c2nn(CC(=O)NC3CCCC3)c(=O)c3ccccc23)cc1 | -1.68
O=C(O)C1C2C=CC(C2)C1C(=O)N1CC=C(c2ccccc2)CC1 (centres unmarked) | -1.1
CCOC(=O)c1c(S(=O)(=O)N2CCCC(C)C2)c(C)n(C)c1C (centres unmarked) | -2.81
O=C(O)C1CCCCC1C(=O)Nc1ccc(Cl)cc1 (centres unmarked) | -2.19
COc1ccc(CO[C@@H]2O[C@H](CO)[C@@H](O)[C@H](O)[C@H]2NC(C)=O)cc1OC | -0.0235
CNc1oc(/C=C/c2ccccc2OC)nc1C#N | 2.54
COC(=O)/C(=C\C(C#N)=C/N(C)C)C(C)=O | 7.24
Cn1c2c(c(=O)n(C)c1=O)CN(CCc1ccco1)CN2 | -1.08
O=S(=O)(NCc1ccc(Cl)cc1)c1ccc2c(c1)OCCO2 | -4.69
O=C(CCc1ccc(S(=O)(=O)NCc2ccccc2)cc1)N1CCCCCC1 | 3.53
COc1ccc2nc(N3CCC(C(=O)NCC(C)CN4CCC(C)CC4)CC3)sc2c1 (centres unmarked) | 4.79
